# PubChem BioAssay (Tox21)
# Values joined by “and” are separate entries in the source; they are usually repeats but may differ in a detail not shown here. Equal entries are not always repeated. This list was built around the results that the source calls inconclusive (neither active nor inactive); the mix of calls is not that of the screen. For some assays here: Potencies beside an inconclusive call are fits to weak or partial responses and may not hold up. Some compounds were tested as several samples or in several runs, with calls that do not always agree. Active and inactive are the calls of the source. Unless noted, calls come from the whole dose curve; as a rule, active = well fitted curve in the direction sought with a large enough effect in the repeat runs; inconclusive = weak or mixed curves; inactive = no such curve, though single readings can be large; an effect the other way counts as inactive or inconclusive.
# Tests used:
# [1] = A CellTox Green Cytotoxicity Assay to monitor cytotoxicity in HepG2 cells - 32 hour (AID 1224883); note: nearly all actives have a fitted effect of over 50% in size; note: potency is the fitted concentration of half-maximal effect
# In short: (§1)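 Cytotoxicity was tracked as dead-cell DNA fluorescence in HepG2 cells treated with test compounds at 37 C; each time-point value comes from one kinetic series spanning 0, 8, 16, 24, 32 and 40 h.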
# [2] = qHTS RealTime-Glo MT Cell Viability Assay in HEK293 cells - 8 hour (AID 1224887); note: potency is the fitted concentration of half-maximal effect; nearly all actives have a fitted effect of over 50% in size
# In short: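 Kinetic, non-lysing viability readout. Seed HEK293 (600/well) with reagent, incubate 5 h at 37 C/5% CO2, pin 23 nL compound in DMSO, incubate at 37 C, read luminescence at 0, 8, 16, 24, 32, 40 h.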
# [3] = A CellTox Green Cytotoxicity Assay to monitor cytotoxicity in HepG2 cells - 8 hour (AID 1224890); note: potency is the fitted concentration of half-maximal effect; nearly all actives have a fitted effect of over 45% in size
# In short: as §1
# [4] = molecular target: Estrogen receptor (Homo sapiens) (UniProt P03372); assay: qHTS assay to identify small molecule antagonists of the estrogen receptor alpha (ER-alpha) signaling pathway using the BG1 cell line in the presence of 0.1 nM 17-beta-estradiol (AID 1259244); note: potency is the fitted concentration of half-maximal effect; nearly all actives have a fitted effect of over 50% in size
# In short: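 Luciferase signal from VM7Luc4E2 ERE-reporter cells, co-dosed with test compound and 0.1 nM final 17beta-estradiol for 22 h, read with ONE-Glo.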
# [5] = qHTS assay to identify small molecule antagonists of the sonic hedgehog signaling (Shh) pathway (AID 1259369; calls by dose curve; note: nearly all actives have a fitted effect of over 45% in size; note: potency is the fitted concentration of half-maximal effect)
# In short: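 Read-out is luminescence from a firefly luciferase gene controlled by the Gli1 response element, in 3T3Gli1-Luc cells pre-incubated 4hr then exposed to compounds and conditioned medium for 24hr.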
# [6] = qHTS assay to identify small molecule agonists of the sonic hedgehog signaling (Shh) pathway - cell viability counter screen (AID 1259366); note: nearly all actives have a fitted effect of over 50% in size; note: potency is the fitted concentration of half-maximal effect
# In short: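 Cells are plated at 2,000 per well and left 4hr at 37C, 5% CO2 before compound addition. After 23hr of treatment, CellTiter-Fluor reagent is added for 1hr at 37C and fluorescence is measured.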
# [7] = molecular target: Estrogen receptor beta (Homo sapiens) (UniProt Q92731); assay: qHTS assay to identify small molecule agonists of the estrogen receptor beta (ER-beta) signaling pathway (AID 1259377; active = well fitted activation curve with a large enough effect in the signal ratio in the repeat runs, not every such curve was filed as active; inconclusive = weak or mixed curves, or effect the other way; the % refers to the signal ratio; note: % is set by controls: 0 for no effect and ±100 for the full control effect); details: ER-beta-UAS-bla HEK293T, beta-lactamase FRET ratio, 16 h; activation: at 92.4 µM (top of the series) unless noted
# In short: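 Agonist mode cell assay in GripTite HEK293T cells expressing an ER-beta fusion that drives beta-lactamase from an Upstream Activator Sequence; 16 hr compound exposure at 37C, then 2 h LiveBLAzer B/G FRET substrate at room temperature, fluorescence read-out.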
# Tags give direction and shape of the fitted curve.
# Sequence of UniProt Q92731 (Q92731 whole entry, looked up, the tested form may be a part): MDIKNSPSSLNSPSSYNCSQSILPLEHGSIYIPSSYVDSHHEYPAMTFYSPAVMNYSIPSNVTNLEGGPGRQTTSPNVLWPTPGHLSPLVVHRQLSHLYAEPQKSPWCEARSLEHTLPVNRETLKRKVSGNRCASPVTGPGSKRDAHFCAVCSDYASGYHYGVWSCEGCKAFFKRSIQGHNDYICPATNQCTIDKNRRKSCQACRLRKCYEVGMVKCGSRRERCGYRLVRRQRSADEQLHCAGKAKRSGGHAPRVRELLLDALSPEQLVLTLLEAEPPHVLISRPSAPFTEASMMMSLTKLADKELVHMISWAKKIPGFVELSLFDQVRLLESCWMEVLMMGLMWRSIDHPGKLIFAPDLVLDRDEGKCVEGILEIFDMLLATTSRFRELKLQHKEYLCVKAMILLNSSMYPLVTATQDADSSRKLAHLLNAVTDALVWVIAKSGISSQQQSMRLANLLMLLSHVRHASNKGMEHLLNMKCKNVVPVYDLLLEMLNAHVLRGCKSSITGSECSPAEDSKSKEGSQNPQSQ
# Sequence of UniProt P03372 (P03372 whole entry, looked up): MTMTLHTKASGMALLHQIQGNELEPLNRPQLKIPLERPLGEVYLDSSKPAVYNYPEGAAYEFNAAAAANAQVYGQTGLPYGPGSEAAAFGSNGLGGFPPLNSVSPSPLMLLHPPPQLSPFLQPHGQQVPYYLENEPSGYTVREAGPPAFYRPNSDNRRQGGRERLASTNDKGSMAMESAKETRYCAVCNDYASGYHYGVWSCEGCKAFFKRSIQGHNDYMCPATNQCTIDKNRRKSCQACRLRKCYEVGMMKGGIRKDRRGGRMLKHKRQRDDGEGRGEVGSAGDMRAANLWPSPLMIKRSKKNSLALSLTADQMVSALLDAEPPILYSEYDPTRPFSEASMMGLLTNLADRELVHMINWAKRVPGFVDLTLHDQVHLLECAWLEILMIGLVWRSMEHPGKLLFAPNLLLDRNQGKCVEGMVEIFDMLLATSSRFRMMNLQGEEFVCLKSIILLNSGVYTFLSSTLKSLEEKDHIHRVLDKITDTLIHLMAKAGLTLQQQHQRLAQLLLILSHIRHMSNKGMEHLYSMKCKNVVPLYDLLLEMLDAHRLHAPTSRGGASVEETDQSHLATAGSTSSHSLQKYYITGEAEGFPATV
smiles,measurement,setting,value
CCc1cc2cc(OC)c(OC)cc2c(Cc2ccccc2)n1,Potency,[1],"inconclusive: 10.7 µM [activator, partial curve]"
same,Potency,[2],active: 16.9 µM
same,Potency,[3],"inconclusive: 10.7 µM [activator, single point]"
same,Potency,[4],"inconclusive: 21.1 µM [inhibitor, partial curve]"
same,Potency,[5],"inconclusive: 11.9 µM [inhibitor, partial curve, poor fit]"
Nc1ccc(C(=O)O)c(O)c1,Potency,[1],inactive
same,Potency,[3],"inconclusive: 15.1 µM [activator, single point]"
Cc1c(N=C=O)cccc1N=C=O,Potency,[1],"inconclusive: 56 µM [activator, partial curve, poor fit]"
same,Potency,[6],inactive
CC1=C(/C=C/C(C)=C/C=C/C(C)=C/CO)C(C)(C)CCC1,Potency,[1],"inactive and inconclusive: 57.9 µM [activator, single point]"
same,Potency,[5],"inconclusive: 5.12 µM [inhibitor, full curve]"
same,activation,[7],inconclusive: -0.169%
Cc1cn([C@H]2C[C@H](N=[N+]=[N-])[C@@H](CO)O2)c(=O)[nH]c1=O,Potency,[1],"inconclusive: 13.4 µM [activator, single point]"
same,Potency,[3],"inconclusive: 10.7 µM [activator, single point]"
same,Potency,[6],"inconclusive: 79.2 µM [cytotoxic, single point]"
same,Potency,[5],active: 17.7 µM
Cc1ccc(O)cc1,Potency,[1],"inconclusive: 60.5 µM [activator, partial curve, poor fit]"
same,Potency,[5],inactive
COS(=O)(=O)C(F)(F)F,Potency,[1],inactive
same,Potency,[4],"inconclusive: 71.7 µM [inhibitor, single point]"
same,Potency,[6],"inconclusive: 80.4 µM [cytotoxic, single point]"
same,Potency,[5],active: 14.3 µM
same,Potency,[7],inactive
